According to patent US20170210802A1 (INNATE PHARMA, published 2017):

How the values were obtained:
[1] = target: T1, human FcRn (recombinant, Example 10) (human, UniProt P55899 part only; P61769 part only, limits assumed); assay: SPR, recombinant FcRn immobilised on CM5, SCK/Two state reaction
T1 construct: also called recombinant FcRn proteins

[2] = target: T2, Human NKp46 recombinant proteins (human, UniProt O76036 22-258, limits assumed); assay: SPR (Biacore T100), antibody captured on Protein-A chip, recombinant human NKp46 injected (6.25-400 nM), 1:1 kinetic model
T2 construct: also called recombinant human NKp46
T2 sequence (looked up): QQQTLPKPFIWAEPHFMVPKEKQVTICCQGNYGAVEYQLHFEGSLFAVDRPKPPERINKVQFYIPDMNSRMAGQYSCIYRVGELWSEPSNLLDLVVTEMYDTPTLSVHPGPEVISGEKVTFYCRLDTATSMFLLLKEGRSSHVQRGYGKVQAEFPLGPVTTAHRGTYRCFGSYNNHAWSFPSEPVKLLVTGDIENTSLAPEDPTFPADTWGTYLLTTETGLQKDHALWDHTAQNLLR
Method: SPR measurements were performed on a Biacore T100 apparatus (Biacore GE Healthcare) at 25° C. In all Biacore experiments HBS-EP+(Biacore GE Healthcare) and NaOH 10 mM served as running buffer and regeneration buffer respectively. Sensorgrams were analyzed with Biacore T100 Evaluation software. Protein-A was purchase from (GE Healthcare). Human NKp46 recombinant proteins were cloned, produced and purified at Innate Pharma.
Protein-A proteins were immobilized covalently to carboxyl groups in the dextran layer on a Sensor Chip CM5. The chip surface was activated with EDC/NHS (N-ethyl-N′-(3-dimethylaminopropyl) carbodiimidehydrochloride and N-hydroxysuccinimide (Biacore GE Healthcare)). Protein-A was diluted to 10 μg/ml in coupling buffer (10 mM acetate, pH 5.6) and injected until the appropriate immobilization level was reached (i.e. 2000 RU). Deactivation of the remaining activated groups was performed using 100 mM ethanolamine pH 8 (Biacore GE Healthcare).
Monovalent affinity study was done following a regular Capture-Kinetic protocol recommended by the manufacturer (Biacore GE Healthcare kinetic wizard). Seven serial dilutions of human NKp46 recombinant proteins, ranging from 6.25 to 400 nM were sequentially injected over the captured Bi-Specific antibodies and allowed to dissociate for 10 min before regeneration. The entire sensorgram sets were fitted using the 1:1 kinetic binding model.

[3] = target: T1, human FcRn (recombinant, Example 10); assay: SPR, recombinant FcRn immobilised on CM5, Steady State
T1 sequence (P55899 24-297 limits assumed, form in doubt, chain 1 of 2): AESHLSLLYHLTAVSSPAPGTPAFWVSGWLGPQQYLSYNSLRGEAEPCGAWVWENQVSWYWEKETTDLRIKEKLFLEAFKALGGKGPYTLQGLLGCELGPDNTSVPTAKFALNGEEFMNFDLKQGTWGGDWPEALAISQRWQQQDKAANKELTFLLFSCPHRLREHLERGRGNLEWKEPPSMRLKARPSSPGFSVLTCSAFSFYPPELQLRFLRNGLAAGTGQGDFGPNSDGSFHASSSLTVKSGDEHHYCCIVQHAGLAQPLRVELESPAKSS
T1 sequence (P61769 21-119 limits assumed, form in doubt, chain 2 of 2, further chain): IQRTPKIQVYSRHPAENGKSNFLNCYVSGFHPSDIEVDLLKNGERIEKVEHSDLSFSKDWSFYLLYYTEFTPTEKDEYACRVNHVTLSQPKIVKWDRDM

B1: CD19-F14-NKp46-3 (bispecific antibody, human IgG1, kappa)
chain 1: IQLTQSPASLAVSLGQRATISCKASQSVDYDGDSYLNWYQQIPGQPPKLLIYDASNLVSGIPPRFSGSGSGTDFTLNIHPVEKVDAATYHCQQSTEDPWTFGGGTKLEIKRTVAAPSVFIFPPSDEQLKSGTASVVCLLNNFYPREAKVQWKVDNALQSGNSQESVTEQDSKDSTYSLSSTLTLSKADYEKHKVYACEVTHQGLSSPVTKSFNRGE[… human IgG1 Fc with N297S (EU numbers) …]
chain 2: QVQLQQSGAELVRPGSSVKISCKASGYAFSSYWMNWVKQRPGQGLEWIGQIWPGDGDTNYNGKFKGKATLTADESSSTAYMQLSSLASEDSAVYFCARRETTTVGRYYYAMDYWGQGTTVTVSSASTKGPSVFPLAPSSKSTSGGTAALGCLVKDYFPEPVTVSWNSGALTSGVHTFPAVLQSSGLYSLSSVVTVPSSSLGTQTYICNVNHKPSNTKVDKRV[… human IgG1 Fc with N297S (EU numbers) …]TGSEVQLQQSGPELVKPGASVKISCKTSGYTFTEYTMHWVKQSHGKSLEWIGGISPNIGGTSYNQKFKGKATLTVDKSSSTAYMELRSLTSEDSAVYYCARRGGSFDYWGQGTTLTVSSVEGGSGGSGGSGGSGGVDDIVMTQSPATLSVTPGDRVSLSCRASQSISDYLHWYQQKSHESPRLLIKYASQSISGIPSRFSGSGSGSDFTLSINSVEPEDVGVYYCQNGHSFPLTFGAGTKLELK
notes: also called Format 14 (F14); copies: 1 + 1
Work on B1 yielded a Kd [1] of 14 nM, a Kd [2] of 62 nM and a koff [2] of 0.00546 s⁻¹. For the same binder, the kon [2] was 88300 M⁻¹ s⁻¹.

B2: CD19-F10A-NKp46-3 (bispecific antibody, human IgG1, kappa)
chain 1: DIQLTQSPASLAVSLGQRATISCKASQSVDYDGDSYLNWYQQIPGQPPKLLIYDASNLVSGIPPRFSGSGSGTDFTLNIHPVEKVDAATYHCQQSTEDPWTFGGGTKLEIKRTVAAPSVFIFPPSDEQLKSGTASVVCLLNNFYPREAKVQWKVDNALQSGNSQESVTEQDSKDSTYSLSSTLTLSKADYEKHKVYACEVTHQGLSSPVTKSFNRGEC
chain 2: QVQLQQSGAELVRPGSSVKISCKASGYAFSSYWMNWVKQRPGQGLEWIGQIWPGDGDTNYNGKFKGKATLTADESSSTAYMQLSSLASEDSAVYFCARRETTTVGRYYYAMDYWGQGTTVTVSSASTKGPSVFPLAPSSKSTSGGTAALGCLVKDYFPEPVTVSWNSGALTSGVHTFPAVLQSSGLYSLSSVVTVPSSSLGTQTYICNVNHKPSNTKVDKRV[… human IgG1 Fc with N297S (EU numbers) …]GGGSGGGGSGGGGSGQPREPQVYTLPPSREEMTKNQVSLTCLVKGFYPSDIAVEWESNGQPENNYKTTPPVLDSDGSFFLYSKLTVDKSRWQQGNVFSCSVMHEALHNHYTQKSLSLSPGSTGSEVQLQQSGPELVKPGASVKISCKTSGYTFTEYTMHWVKQSHGKSLEWIGGISPNIGGTSYNQKFKGKATLTVDKSSSTAYMELRSLTSEDSAVYYCARRGGSFDYWGQGTTLTVSSVEGGSGGSGGSGGSGGVDDIVMTQSPATLSVTPGDRVSLSCRASQSISDYLHWYQQKSHESPRLLIKYASQSISGIPSRFSGSGSGSDFTLSINSVEPEDVGVYYCQNGHSFPLTFGAGTKLELK
notes: Heterodimer, monomeric Fc with tandem CH3, N297S, wild-type hinge cysteines (variant A); also called Format 10 (F10)
Binder B2 has a Kd [3] of 433 nM, a Kd [2] of 29 nM and a koff [2] of 0.00754 s⁻¹. It also gave a kon [2] of 261000 M⁻¹ s⁻¹.

B3: CD19-F13-NKp46-3 (bispecific antibody, human IgG1, kappa)
chain 1: DIQLTQSPASLAVSLGQRATISCKASQSVDYDGDSYLNWYQQIPGQPPKLLIYDASNLVSGIPPRFSGSGSGTDFTLNIHPVEKVDAATYHCQQSTEDPWTFGGGTKLEIKRTVAAPSVFIFPPSDEQLKSGTASVVCLLNNFYPREAKVQWKVDNALQSGNSQESVTEQDSKDSTYSLSSTLTLSKADYEKHKVYACEVTHQGLSSPVTKSFNRGE[… human IgG1 Fc …]
chain 2: QVQLQQSGAELVRPGSSVKISCKASGYAFSSYWMNWVKQRPGQGLEWIGQIWPGDGDTNYNGKFKGKATLTADESSSTAYMQLSSLASEDSAVYFCARRETTTVGRYYYAMDYWGQGTTVTVSSASTKGPSVFPLAPSSKSTSGGTAALGCLVKDYFPEPVTVSWNSGALTSGVHTFPAVLQSSGLYSLSSVVTVPSSSLGTQTYICNVNHKPSNTKVDKRV[… human IgG1 Fc …]TGSEVQLQQSGPELVKPGASVKISCKTSGYTFTEYTMHWVKQSHGKSLEWIGGISPNIGGTSYNQKFKGKATLTVDKSSSTAYMELRSLTSEDSAVYYCARRGGSFDYWGQGTTLTVSSVEGGSGGSGGSGGSGGVDDIVMTQSPATLSVTPGDRVSLSCRASQSISDYLHWYQQKSHESPRLLIKYASQSISGIPSRFSGSGSGSDFTLSINSVEPEDVGVYYCQNGHSFPLTFGAGTKLELK
notes: Heterodimer with dimeric wild-type Fc domain; also called Format 13 (F13); copies: 1 + 1
B3 was tested, and the Kd [2] was 68 nM, the koff [2] was 0.00565 s⁻¹ and the kon [2] was 83000 M⁻¹ s⁻¹.
